According to the supplement of paper PMC12217912:
Some of the results follow. The full chains were built here from the parent and the listed change. Values near 0.05 are background.

B1: TEV protease; numbered along this chain (parent)
chain: MGESLFKGPRDYNPISSSICHLTNESDGHTTSLYGIGFGPFIITNKHLFRRNNGTLVVQSLHGVFKVKDTTTLQQHLVDGRDMIIIRMPKDFPPFPQKLKFREPQREERICLVTTNFQTKSMSSMVSDTSCTFPSGDGIFWKHWIQTKDGQCGSPLVSTRDGFIVGIHSASNFTNTNNYFTSVPKNFMELLTNQEAQQWVSGWRLNADSVLWGGHKVFMVKPEEPFQPVKEATQL

Variants of: B1
Assay: raw area under fraction-flipped curve 0-4 h after induction (AUC4h, not background-subtracted), DNA-recorder readout of cleavage of the substrate (dimensionless); higher = more cleavage of the substrate by the protease variant
Conditions: temperature: 34 °C; time window: 0-4 h after rhamnose induction
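Further: Bxb1 expression induced with 0.2% (w/v) L-rhamnose at OD600 near 0.5, cultures sampled hourly, flipped fraction per protease–substrate barcode pair counted by paired-end Illumina sequencing.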

Row | Variant | area with substrate ENLYFDS | area with substrate ENLYFES | area with substrate ENLYFFS | area with substrate ENLYFIS | area with substrate ENLYFVS | area with substrate ENLYFNS | area with substrate ENLYFPS | area with substrate ENLYFWS | area with substrate ENLYFHS | area with substrate ENLYFKS | area with substrate ENLYFMS | area with substrate ENLYFTS | area with substrate ENLYFLS | area with substrate ENLYFRS | area with substrate ENLYFSS | area with substrate ENLYFYS | area with substrate ENLYFGS | area with substrate ENLYFCS
1 | T159C | 0.0328 | 0.0451 | 0.0652 | 0.0329 | 0.0566 |  |  |  |  |  |  |  |  |  |  |  |  | 
2 | N193S | 0.0552 | 0.0414 |  | 0.0365 |  | 0.0665 | 0.055 | 0.0487 |  |  |  |  |  |  |  |  |  | 
3 | I145E | 0.067 |  | 0.0501 | 0.0608 | 0.0183 | 0.0656 | 0.0582 |  | 0.0498 | 0.0444 | 0.0801 | 0.0662 |  |  |  |  |  | 
4 | G80E | 0.0855 | 0.0699 | 0.0796 | 0.057 | 0.0455 | 0.0765 | 0.0523 | 0.0525 | 0.0653 | 0.0605 | 0.0791 | 0.066 | 0.0488 | 0.0496 | 0.0696 | 0.0461 |  | 
5 | I15N | 0.0514 | 0.0683 | 0.0422 | 0.0519 | 0.0663 | 0.0644 | 0.046 | 0.0424 | 0.0567 | 0.0574 | 0.0538 | 0.0522 |  | 0.043 |  | 0.0725 | 0.0403 | 
6 | H168T | 0.073 | 0.0617 | 0.0615 | 0.0592 |  | 0.0559 | 0.059 |  | 0.0349 | 0.0621 | 0.0525 |  | 0.0662 |  |  |  |  | 0.0566
7 | H168S |  |  | 0.0569 |  |  | 0.0601 | 0.0496 |  | 0.0643 | 0.0587 | 0.0677 | 0.0574 |  |  | 0.0581 |  |  | 0.0549
8 | H168V | 0.0266 | 0.0638 |  | 0.0528 | 0.0635 | 0.0672 | 0.048 | 0.0429 | 0.061 |  | 0.0566 |  |  |  | 0.0582 | 0.04 | 0.0497 | 
9 | R160M |  |  | 0.0662 | 0.0386 |  |  |  | 0.0642 |  |  | 0.0732 |  |  |  |  | 0.0536 |  | 
10 | V64D | 0.065 | 0.0724 | 0.0178 | 0.0502 | 0.0569 | 0.0589 | 0.0494 | 0.0568 | 0.0441 | 0.0527 | 0.04 | 0.0573 |  |  |  | 0.0597 |  | 
11 | D69G | 0.0566 | 0.068 | 0.0645 | 0.0539 |  |  | 0.0502 |  | 0.0616 |  | 0.0592 |  |  | 0.0622 |  |  |  | 
12 | Q234G |  |  | 0.0717 |  |  |  | 0.0535 |  |  |  | 0.0496 |  |  | 0.0615 |  |  |  | 
13 | H62K |  | 0.0743 | 0.074 | 0.0639 | 0.0502 |  | 0.06 |  | 0.0652 | 0.0614 | 0.0665 | 0.0557 |  |  | 0.0557 |  |  | 
14 | F226D | 0.0146 | 0.0665 |  | 0.0508 | 0.0106 |  | 0.0402 |  | 0.0462 |  |  | 0.0629 | 0.0668 | 0.0583 |  | 0.0528 |  | 0.102
15 | G35R |  | 0.104 |  | 0.0386 |  | 0.0482 |  |  | 0.0448 |  |  | 0.0522 | 0.0399 | 0.045 |  |  |  | 
16 | Y12Q | 0.0546 | 0.1 | 0.061 | 0.0629 |  | 0.0686 | 0.057 | 0.0558 | 0.0633 | 0.0644 | 0.0716 | 0.0522 | 0.0546 |  | 0.0439 | 0.0682 | 0.0539 | 
